# This is one part of the list. Repeats are few or missing, and single values can be far off.
# How the values were obtained:
# Test in all cases: cell count relative to DMSO control; melanoma cells; higher = more viable cells
# Conditions in all cases: library dose: low library concentration; 72 h
# COLO792 = system: COLO792
# COLO800 = system: COLO800
# COLO829 = system: COLO829
# G361 = system: G361
# IPC-298 = system: IPC-298
# IST-MEL1 = system: IST-MEL1
# LB2518-MEL = system: LB2518-MEL
# LOXIMVI = system: LOXIMVI
# MEL-HO = system: MEL-HO
# MZ2-MEL = system: MZ2-MEL
# MeWo = system: MeWo
# RPMI7951 = system: RPMI7951
# RVH-421 = system: RVH-421
# SkMel28 = system: SkMel28
# SkMel30 = system: SkMel30
# SkMel5 = system: SkMel5
# UACC257 = system: UACC257
# UACC62 = system: UACC62
# WM115 = system: WM115
# WM1716 = system: WM1716
# 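Also: cell number obtained by counting DAPI-stained nuclei in high-throughput microscope images with image analysis software, screen run in 1,536-well plates.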
SMILES,cell count (COLO792),cell count (COLO800),cell count (COLO829),cell count (G361),cell count (IPC-298),cell count (IST-MEL1),cell count (LB2518-MEL),cell count (LOXIMVI),cell count (MEL-HO),cell count (MZ2-MEL),cell count (MeWo),cell count (RPMI7951),cell count (RVH-421),cell count (SkMel28),cell count (SkMel30),cell count (SkMel5),cell count (UACC257),cell count (UACC62),cell count (WM115),cell count (WM1716)
"COc1ccc2c(c1)CCC1C2CCC2(C)C(NCCCCCCN3C(=O)C=CC3=O)CCC12 (stereo not given) + Oc1cc(-c2nc(-c3ccccc3)[nH]c2-c2ccncc2)ccc1Cl [L779450] (first compound 0.4 µM, partner dose 0.2 µM)",108%,94.1%,111%,75.5%,73.3%,96.9%,78.4%,100%,89.8%,71.3%,92.3%,53.5%,88.6%,82%,93.4%,109%,92.4%,82.2%,89.1%,79.2%
"COc1cc2ncnc(Nc3ccc(Oc4ccccc4)cc3)c2cc1OC + COc1cc(N2CCC(N3CCN(C)CC3)CC2)ccc1Nc1ncc(Cl)c(Nc2ccccc2S(=O)(=O)C(C)C)n1 [NVP-TAE684] (first compound 2 µM, partner dose 0.08 µM)",96.8%,114%,100%,104%,101%,101%,129%,116%,80.1%,95.9%,82.6%,114%,97%,90.1%,113%,86.7%,82.2%,117%,97.6%,109%
"CCN(CC)CCCCNc1ncc2cc(-c3cc(OC)cc(OC)c3)c(NC(=O)NC(C)(C)C)nc2n1 + c1cc(-c2cnn3cc(-c4ccc(OCCN5CCCCC5)cc4)cnc23)ccn1 [Dorsomorphin] (first compound 0.1 µM, partner dose 0.4 µM)",90.3%,84.8%,103%,86.9%,106%,100%,85.3%,131%,93%,89.6%,94.7%,107%,100%,94.8%,128%,125%,81.4%,100%,99.2%,97.1%
"N#Cc1c(O)c2c(-c3ccc(-c4ccccc4O)cc3)csc2[nH]c1=O + O=C(O)C(=O)Nc1sc2c(c1C(=O)O)CCNC2 [TCS401] (first compound 2 µM, partner dose 1.66667 µM)",95%,88%,70.6%,97.5%,99.4%,106%,119%,92.8%,94.8%,98.9%,123%,111%,108%,110%,84.5%,112%,111%,119%,106%,105%
"COC(=O)c1sccc1S(=O)(=O)Nc1ccc(Nc2ccccc2)cc1OC + COc1cc2ncnc(Nc3ccc(Oc4ccccc4)cc3)c2cc1OC [SrcI1] (first compound 1 µM, partner dose 2 µM)",92.4%,95.9%,102%,87.5%,90.5%,98.3%,134%,127%,96.3%,84.8%,95.3%,111%,126%,92.4%,105%,100%,113%,100%,108%,108%
"COC(=O)c1sccc1S(=O)(=O)Nc1ccc(Nc2ccccc2)cc1OC + CCCCCCCCCCCC1=C(O)C(=O)C=C(O)C1=O [Embelin] (first compound 1 µM, partner dose 1.2 µM)",112%,90.3%,115%,104%,103%,98%,84.2%,136%,93.3%,96.3%,99.2%,90.8%,112%,109%,107%,102%,98%,107%,100%,103%
"O=C1NC(=O)/C(=C/c2ccc(-c3ccc(F)cc3O)o2)S1 + O=c1cc(-c2cccc3c2Sc2ccccc2S3)oc(N2CCOCC2)c1 [KU55933] (first compound 1 µM, partner dose 1 µM)",99.7%,125%,132%,76.2%,102%,108%,106%,110%,95%,96.6%,97.8%,103%,116%,88.1%,109%,111%,114%,110%,95.8%,120%
"Cc1cc([N+](=O)[O-])ccc1NS(=O)(=O)c1cc(Cl)ccc1Cl + COc1cc(N2CCC(N3CCN(C)CC3)CC2)ccc1Nc1ncc(Cl)c(Nc2ccccc2S(=O)(=O)C(C)C)n1 [NVP-TAE684] (first compound 1 µM, partner dose 0.08 µM)",94.5%,128%,96.5%,85.9%,92.3%,87.3%,99.1%,116%,74.5%,98.7%,84.1%,103%,5.04%,98%,92.7%,67.4%,75.1%,79.4%,93.5%,104%
"Cc1cc([N+](=O)[O-])ccc1NS(=O)(=O)c1cc(Cl)ccc1Cl + O=c1cc(-c2cccc3c2Sc2ccccc2S3)oc(N2CCOCC2)c1 [KU55933] (first compound 1 µM, partner dose 1 µM)",82.3%,103%,104%,85.2%,84.5%,78.6%,110%,89.8%,80.4%,97.9%,89.8%,103%,82%,76.6%,95.2%,81.1%,97.5%,87.9%,84.7%,98.6%
"O=S(=O)(c1ccccc1)N(CC(F)(F)F)c1ccc(C(O)(C(F)(F)F)C(F)(F)F)cc1 + Oc1cc(-c2nc(-c3ccccc3)[nH]c2-c2ccncc2)ccc1Cl [L779450] (first compound 1.4 µM, partner dose 0.2 µM)",92.6%,90%,78%,79.1%,64.7%,114%,94.2%,85.6%,85.4%,70.8%,103%,96.2%,114%,88.8%,89.1%,69.7%,88.8%,61.5%,91.8%,105%
"N#Cc1c(O)c2c(-c3ccc(-c4ccccc4O)cc3)csc2[nH]c1=O + CCN(CC)CCCCNc1ncc2cc(-c3cc(OC)cc(OC)c3)c(NC(=O)NC(C)(C)C)nc2n1 [PD173074] (first compound 2 µM, partner dose 0.1 µM)",91.7%,70.1%,111%,99.8%,105%,95.9%,93.7%,104%,92%,98.8%,93.7%,103%,90%,92.4%,132%,96.8%,81.2%,93.9%,95.4%,88.4%
"COC(=O)c1sccc1S(=O)(=O)Nc1ccc(Nc2ccccc2)cc1OC + Cn1cc(/C=C2\C(=O)Nc3cccnc32)c2ccccc21 [GW441756] (first compound 1 µM, partner dose 0.4 µM)",94.1%,64%,91.3%,101%,102%,107%,112%,123%,91.5%,91.2%,98.5%,94.7%,108%,98.4%,92.3%,70.5%,103%,104%,94.1%,100%
"COc1ccc(-c2ccc3c(N4CCOCC4)nc(N4C[C@@H](C)O[C@@H](C)C4)nc3n2)cc1CO + Oc1nc(-c2ccc(C(F)(F)F)cc2)nc2c1CSCC2 [XAV939] (first compound 0.02 µM, partner dose 2 µM)",72.5%,85.3%,92.2%,88.7%,89.1%,88.4%,89.7%,84.2%,74.5%,91.7%,78.9%,86.3%,85.7%,91.9%,86.1%,83.9%,81.4%,84.7%,79.2%,55.4%
"O=C(O)C(=O)Nc1sc2c(c1C(=O)O)CCNC2 + Oc1nc(-c2ccc(C(F)(F)F)cc2)nc2c1CSCC2 [XAV939] (first compound 1.66667 µM, partner dose 2 µM)",80.3%,147%,102%,91.2%,92.2%,105%,95.3%,97.3%,74.5%,97.2%,98.4%,92.2%,96%,98.4%,134%,82.2%,69.5%,91.1%,77.3%,47.2%
"Oc1cc(-c2nc(-c3ccccc3)[nH]c2-c2ccncc2)ccc1Cl + CC(C)CCN1c2nc(Nc3cc(F)c(O)c(F)c3)ncc2N(C)C(=O)C1C [BID1870] (first compound 0.2 µM, partner dose 0.2 µM)",101%,103%,92.6%,88.2%,105%,91.3%,130%,118%,93.9%,95.7%,99%,91.8%,80.2%,76%,108%,86.9%,78.6%,57.4%,72.2%,109%
"COC(=O)c1sccc1S(=O)(=O)Nc1ccc(Nc2ccccc2)cc1OC + COc1cc(N2CCC(N3CCN(C)CC3)CC2)ccc1Nc1ncc(Cl)c(Nc2ccccc2S(=O)(=O)C(C)C)n1 [NVP-TAE684] (first compound 1 µM, partner dose 0.08 µM)",96.5%,90.7%,99.1%,91.7%,100%,110%,98.8%,127%,99.1%,93.2%,91.7%,92.6%,83.9%,80.9%,93.1%,74.4%,80%,81.2%,93.4%,102%
"O=C1NC(=O)/C(=C/c2ccc(-c3ccc(F)cc3O)o2)S1 + Oc1nc(-c2ccc(C(F)(F)F)cc2)nc2c1CSCC2 [XAV939] (first compound 1 µM, partner dose 2 µM)",77%,91.5%,88.5%,72.1%,93.6%,106%,96.5%,86.3%,85.9%,96%,95.7%,106%,89.1%,89%,95.3%,82.2%,85.7%,79.7%,89.4%,73.6%
